Data reported in PubChem BioAssay AID488969 (Vanderbilt High Throughput Screening Facility, 2010).
The full ranking holds about 110,000 compounds; the median of “z-score” is about -0.1, and the highest 2% start at about 2. The list shows a part of the results. The source made the active and inactive calls.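 Rule for the calls: active = z-score in the third read window above 3 or below -3; inactive = the rest.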

Target: Metabotropic glutamate receptor 8 (Rattus norvegicus) (UniProt P70579)
Assay: mGluR8 Gi/Go-coupled signaling modulation – cell-based, rat, thallium flux, HTS, primary screen (AID 488969)
Conditions: HEK293 rat mGluR8, GIRK (G protein-gated inwardly rectifying potassium channel) thallium flux, FluoZin2; at 10 µM; stronger effect = higher value; submaximal glutamate (EC20) added with thallium

UniProt P70579, sequence (P70579 whole entry, looked up): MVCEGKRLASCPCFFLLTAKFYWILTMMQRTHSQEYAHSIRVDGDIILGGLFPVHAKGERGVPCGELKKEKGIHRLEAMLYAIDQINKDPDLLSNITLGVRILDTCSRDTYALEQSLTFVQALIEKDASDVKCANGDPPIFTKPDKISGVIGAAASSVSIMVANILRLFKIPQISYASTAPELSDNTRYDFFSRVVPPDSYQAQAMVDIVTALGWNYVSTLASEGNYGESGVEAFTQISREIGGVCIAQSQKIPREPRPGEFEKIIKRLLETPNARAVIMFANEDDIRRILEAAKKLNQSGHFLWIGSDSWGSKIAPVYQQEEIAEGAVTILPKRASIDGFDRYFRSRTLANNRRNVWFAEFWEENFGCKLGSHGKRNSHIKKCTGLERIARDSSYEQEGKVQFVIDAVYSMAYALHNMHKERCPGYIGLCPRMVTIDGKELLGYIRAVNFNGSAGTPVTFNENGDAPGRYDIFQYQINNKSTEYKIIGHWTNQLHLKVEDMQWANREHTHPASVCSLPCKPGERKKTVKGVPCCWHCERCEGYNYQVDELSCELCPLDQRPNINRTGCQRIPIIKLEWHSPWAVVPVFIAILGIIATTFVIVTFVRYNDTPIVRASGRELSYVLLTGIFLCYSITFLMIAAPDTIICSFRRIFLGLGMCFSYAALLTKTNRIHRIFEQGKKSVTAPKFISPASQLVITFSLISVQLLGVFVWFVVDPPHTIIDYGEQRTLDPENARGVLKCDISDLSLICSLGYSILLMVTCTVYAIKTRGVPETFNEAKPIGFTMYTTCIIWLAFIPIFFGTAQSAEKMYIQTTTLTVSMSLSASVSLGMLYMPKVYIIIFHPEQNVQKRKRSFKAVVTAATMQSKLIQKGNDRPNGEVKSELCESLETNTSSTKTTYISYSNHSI

Row | SMILES | z-score
1 | O=C(c1ccco1)N1CCN(C(=O)c2nn3cccnc3c2Cl)CC1 | -0.0636
2 | Cc1ccnc2nc(C(=O)NCCc3ccc(F)cc3)nn12 | 0.504
3 | COc1cc(C(=O)Oc2cccc(Nc3ncnc4ccccc34)c2)cc(OC)c1OC | -1.17
4 | O=C(c1ccc(CNS(=O)(=O)c2ccccc2)cc1)N1CCN(c2ccccn2)CC1 | -0.194
5 | CC(=O)c1ccc2c3c(ccc(O)c13)CC2 | 0.635
6 | N#Cc1c(N)n(C2CCCCC2)c2nc3ccccc3nc12 | -0.276
7 | COc1cccc(OCc2nnc(SCC(=O)NCc3ccco3)n2C)c1 | 1.17
8 | CC(C)Cn1c(N)c(C(=O)NCCN2CCOCC2)c2nc3ccccc3nc21 | -0.402
9 | COCCNC(=O)c1onc(CSc2cccc(OC)c2)c1C(=O)O | -0.0826
10 | CCOC(=O)c1c(NC(=O)CSc2nnc(-c3cccnc3)o2)sc2c1CCC2 | -1.11
11 | O=c1ccc(Cl)cn1Cc1ccccc1F | -0.462
12 | Cc1cc2cc(C(c3nnnn3Cc3ccccc3)N3CCc4ccccc43)c(=O)[nH]c2cc1C (configuration not stated) | -0.423
13 | COc1ccc(CNC(=O)c2cc(-n3cnnc3)ccc2Cl)cc1 | 0.0981
14 | O=C1C2C3C=CC(C3)C2C(=O)N1c1n[nH]c(-c2ccccc2)n1 (configuration not stated) | -0.411
15 | COC(=O)CCC(=O)NC(=S)Nc1cc(Cl)ccc1Cl | 0.575
16 | Cc1c(/C(O)=C2/C(=O)C(=O)N(CCN3CCOCC3)C2c2cccs2)cnn1-c1ccccc1 (configuration not stated) | 0.079
17 | CCN1C(=O)C2(SC(NC(C)=O)=NN2C(C)=O)c2cc(C)cc(C)c21 (configuration not stated) | -0.0694
18 | NC1=NC2(CCCCCC2)n2c(nc3ccccc32)N1 | 0.257
19 | CCOc1cc2[nH]c(=O)n(CCC(=O)NCCc3ccccc3)c(=O)c2cc1OCC | -0.0517
20 | Cc1cccc(C(C)(C)C)c1OCCn1ccnc1 | 0.642
21 | Clc1ccc(N2N=C(c3cccs3)CC2c2ccco2)cc1 (configuration not stated) | -0.162
22 | CCCC(=O)N1CCN(c2nc(CC(C)C)c3c(c2C#N)CCC3)CC1 | -0.0696
23 | CCOc1ccc2nc(NC3=NC(C)(C)C=C(C)N3)nc(C)c2c1 | 0.871
24 | CCCc1cc(C(F)(F)F)c(C#N)c(=O)[nH]1 | -0.596

Row | SMILES | z-score
25 | CCn1c(SCC(=O)OC2CCCCC2)nnc1-c1ccncc1 | 0.625
26 | Cc1ccc(-c2csc(Cc3nc(-c4cc5ccccc5oc4=O)cs3)n2)cc1 | -0.175
27 | COC(=O)C1CCN(C(=O)COc2ccc(Cl)cc2)CC1 | -0.634
28 | CCOC(=O)c1c(-c2ccc(OC)cc2)csc1NC(=O)CSc1ccccc1 | -0.082
29 | CSc1ncc(Cl)c(C(=O)Nc2nnc(SC/C=C/c3ccccc3)s2)n1 | -0.288
30 | CCOCC(=O)Nc1nc2ccc(C)cc2s1 | -0.0136
31 | O=C(Cn1c(=O)c2c(ncn2Cc2ccccc2)n(Cc2ccccc2)c1=O)N1CCc2ccccc21 | -0.308
32 | Cn1cnc2nc3n(c2c1=O)CCC3 | 0.445
33 | CCOC(=O)c1c(C)nc2sc3c(c2c1-c1ccc(OC)cc1)NC(c1ccccc1)NC3=O (configuration not stated) | -0.0309
34 | COC(=O)CSc1ccc(C#N)c(SCC(=O)OC)c1 | -0.826
35 | CCc1ccc(OCC(=O)NC(=S)Nc2ccc(C)cc2C)c(Br)c1 | 0.275
36 | CC(C)Cn1c(=O)c2ccccc2c2ccccc2c1=O | -0.513
37 | Cc1nn(Cc2ccccc2)c(C)c1/C=N/NC(=O)CNc1cccc(C(F)(F)F)c1 | -0.116
38 | O=C(Nc1ccc2c(c1)OCCO2)c1c(F)cccc1F | -0.197
39 | CCOC(=O)N1CCC(NC(=O)C2CCC(CNS(=O)(=O)c3ccc(OC)cc3)CC2)CC1 (configuration not stated) | -0.392
40 | COc1cccc(Nc2nc(CC(C)=O)ns2)c1 | -0.486
41 | Cc1no[n+]([O-])c1COc1ccc(/C=C(\C#N)C(N)=O)cc1 | -0.17
42 | Cc1ccc2sc(-c3ccc(NC(=O)c4cc(-n5cnnc5)ccc4Cl)cc3)nc2c1 | -0.0244
43 | COc1ccc(NC(=O)c2cccnc2SC)cc1S(=O)(=O)N1CCCCC1 | -0.467
44 | COc1ccc(-c2nnn(Cc3ccccc3F)n2)cc1 | -0.392
45 | CN1c2ccccc2N(C)C1c1c(O)ccc2ccccc12 | 0.11
46 | CCn1c(SCC(=O)Nc2cccc(C(C)=O)c2)nnc1C(C)C | 2.28
47 | O=C(NC1CCCCCC1)C1CCCN(S(=O)(=O)c2cnc[nH]2)C1 (configuration not stated) | 1.59
48 | CC(C)COC(=O)N1CCCC1C(=O)O (configuration not stated) | -0.316

Row | SMILES | z-score
49 | Cc1ccc(CNC(=O)C2CC(c3cccc([N+](=O)[O-])c3)=NO2)cc1 (configuration not stated) | -0.148
50 | CCc1nc2sc3c(=O)n(N)cnc3c2c2c1COC(C)(C)C2 | 0.789
51 | CCc1nnc2sc(-c3cc(-c4ccccc4)nc4ccccc34)nn12 | -0.507
52 | O=C(c1ccc(S(=O)(=O)c2ccc(F)cc2)c([N+](=O)[O-])c1)N1CCCCCC1 | -0.867
53 | O=C1COc2ccc3ccccc3c2CN1 | -0.14
54 | Cc1cccc(C#N)c1NC1=CC(=O)CC(C)(C)C1 | 0.00644
55 | Cn1c(=O)c2c(nc(SCCN3CCCCC3)n2Cc2ccccc2)n(C)c1=O | 0.263
56 | c1ccc2c(c1)OCC(c1nnc3n1-c1ccccc1SC3)O2 (configuration not stated) | -0.661
57 | COCCn1c(=O)[nH]c2cc(C(=O)N3CCN(c4ccccc4OC)CC3)ccc2c1=O | -0.793
58 | CCC(C)(C(=O)NC1CCCC1)N(CC1CCCO1)C(=O)c1ccc2c(c1)OCO2 (configuration not stated) | 0.273
59 | CC(C)Cn1cnc2sc3c(c2c1=N)CCCC3 | active: 3.07
60 | CN1CCS/C1=C/C=C1/SC(=S)N(Cc2ccccc2)C1=O | -0.218
61 | CC(C)CCNC(=O)c1cccc(Cl)c1 | -0.123
62 | O=C(CNS(=O)(=O)c1ccc(F)c(Cl)c1)N1CCCCCC1 | 0.147
63 | COCCn1c(SCC(=O)NNC(=O)c2ccccc2)nc2ccccc2c1=O | -0.311
64 | O=S(=O)(Nc1ccccc1N1CCCCC1)c1ccc(Cl)s1 | active: 3.45
65 | COc1cc(-c2nn3c(Cc4ccccc4)nnc3s2)cc(OC)c1OC | 0.105
66 | Cc1nnc(NC(=O)c2c(-c3ccccc3)noc2C)s1 | -0.27
67 | Cc1ccc(C(=O)Nc2cnc3ccccn3c2=O)cc1 | active: 4.27
68 | Cc1cc(/C=N/NC(=O)c2cccc([N+](=O)[O-])c2)c(C)n1-c1ccc(Cl)cc1Cl | -0.073
69 | O=C(CNC(=S)NC(=O)C1CCCCC1)c1ccccc1 | -0.309
70 | COc1ccc(-c2nc(CS(=O)CC(=O)NCc3ccco3)c(C)o2)cc1OC (configuration not stated) | -0.186
71 | Cn1cc(SCC(N)=O)c2ccccc21 | 0.346
72 | Cc1cccc(C)c1NC(=O)CSc1nnc(-c2ccco2)n1N | 0.0425
